# According to PubChem BioAssay (NCATS):
# Several values for one entry are separate records, joined by “and”; a condition that tells them apart may be missing. Identical values can stand only once. Inconclusive results, whose numbers are uncertain, are shown with a selection of clear calls. Potencies beside an inconclusive call are fits to weak or partial responses and may not hold up. Activity calls are given as the source filed them. Calls follow the shape of the dose curve; as a rule, active = well fitted curve in the direction sought with a large enough effect; inconclusive = small, poorly fitted or top-dose-only effect, or another doubt; inactive = no such curve, though single readings can be large; an effect the other way counts as inactive or inconclusive.
# System: WaGa
# Assay: qHTS assay to identify novel small-molecules to repurpose for Merkel cell carcinoma treatment (AID 1296009); also: nearly all actives have a fitted effect of over 60% in size
# Settings: MCC and control cell lines, CellTiter-Glo viability, 72 h; series mostly up to 46 µM; activity change, negative = cytotoxicity: at the top concentration
# Outline: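 Dose-response viability screen; 72 hr exposure at 37 degree celsius; CellTiter-Glo added, 10 min room temperature, luminescence read; RLUs scaled between no-cell and DMSO wells.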
# Potency is read from the fitted curve at half-maximal effect; tags tell the direction and shape of the fitted curve.
row,Structure (SMILES),Potency
1,CC(C)Oc1ccc(C(=O)N[C@H](CNC(=O)CN(C)C)Cc2ccc(-c3cn4cccc([C@H](C)O)c4n3)cc2)cc1Cl,"inconclusive: 1.66 µM [inhibitor, full curve]"
2,COc1cc(OC2CCN(C)CC2)ccc1Nc1ncc2c(n1)n(C1CCCC1)c(=O)n2C,active: 23.5 µM
3,CC(=O)O[C@H]1C(=O)[C@@]2(C)C([C@H](OC(=O)c3ccccc3)[C@]3(O)C[C@H](OC(=O)[C@H](O)[C@@H](NC(=O)c4ccccc4)c4ccccc4)C(C)=C1C3(C)C)[C@]1(OC(C)=O)CO[C@@H]1C[C@@H]2O (stereo partly drawn),"inconclusive: 0.0023 µM [inhibitor, full curve]"
4,COc1cc2c(cc1-c1c(C)noc1C)ncc1[nH]c(=O)n([C@H](C)c3ccccn3)c12,active: 5.9 µM
5,O=C(O)c1ccc(-n2nc(-c3ccccc3O)nc2-c2ccccc2O)cc1,"active: 16.8 µM and inconclusive: 13.2 µM [inhibitor, partial curve]"
6,CN(C)CCCNC(=O)c1ccc(-c2cc(O)c3ncccc3c2)cc1,"inconclusive: 23.5 µM [inhibitor, partial curve, poor fit]"
7,CCc1cc(-c2n[nH]c(C)c2-c2ccc3c(c2)OCCO3)c(O)cc1O,"inconclusive: 6.62 µM [inhibitor, full curve]"
8,COc1ccc2c(c1)CC[C@@H](CN(C)CC(=O)O)[C@H]2c1ccccc1,"inconclusive: 3.72 µM [inhibitor, full curve]"
9,COC(=O)Nc1nc2ccc(C(=O)c3ccccc3)cc2[nH]1,"inconclusive: 119 nM [inhibitor, full curve] and inconclusive: 2.96 µM [inhibitor, full curve]"
10,Cc1oc(=O)oc1CN1CCN(c2cc3c(cc2F)c(=O)c(C(=O)O)c2n3C(C)S2)CC1 (stereo not drawn),"inconclusive: 0.935 µM [inhibitor, partial curve, poor fit]"
11,Cc1csc(-c2nnc(Nc3ccc(Oc4ncccc4-c4ccnc(N)n4)cc3)c3ccccc23)c1,active: 0.0118 µM

# System: C33A
# Assay: Primary qHTS to identify gynecologic anti-cancer compounds using libraries of approved drugs and bioactive compounds (AID 1345084); also: nearly all actives have a fitted effect of over 55% in size; as to activity change, negative = cytotoxicity: % is scaled to controls: 0 for no effect and ±100 for the full control effect
# Settings: Gynecologic cancer cell panel viability, ATPlite luminescence, 48 h; series mostly up to 57.5 µM; activity change, negative = cytotoxicity: at the top concentration
# Outline: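 48 h compound exposure at 37 C, 5% CO2; five-point qHTS. ATPlite luminescence readout of cell ATP.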
Structure (SMILES),Potency,"activity change, negative = cytotoxicity"
CCC(=O)N1CCN(c2ccc(-n3c(=O)ccc4cnc5ccc(-c6cnc7ccccc7c6)cc5c43)cc2C(F)(F)F)CC1,"inconclusive: 0.282 µM [cytotoxic, full curve]",
CC(=O)O[C@H]1C(=O)[C@@]2(C)C([C@H](OC(=O)c3ccccc3)[C@]3(O)C[C@H](OC(=O)[C@H](O)[C@@H](NC(=O)c4ccccc4)c4ccccc4)C(C)=C1C3(C)C)[C@]1(OC(C)=O)CO[C@@H]1C[C@@H]2O (stereo partly drawn),"inconclusive: 0.251 µM [cytotoxic, full curve, poor fit]",
CN(C)CCCN1c2ccccc2CCc2ccc(Cl)cc21,,inactive: -21.2%
Cc1ccc2c(c1)c1c(n2CCc2ccc(C)nc2)CCN(C)C1,"inconclusive: 35.5 µM [cytotoxic, partial curve]",
O=C(O)c1ccc(-n2nc(-c3ccccc3O)nc2-c2ccccc2O)cc1,"inconclusive: 35.5 µM [cytotoxic, single point]",
CCc1c2c(nc3ccc(OC(=O)N4CCC(N5CCCCC5)CC4)cc13)-c1cc3c(c(=O)n1C2)COC(=O)[C@]3(O)CC,"inconclusive: 8.91 µM [cytotoxic, partial curve]",
COC(=O)Nc1nc2ccc(C(=O)c3ccccc3)cc2[nH]1,"inconclusive: 7.94 µM [cytotoxic, partial curve, poor fit]",
